Laboratory results from the antibiotic and cytotoxicity screens of Wong et al. (2023).
Some of the results follow.

What was measured:
HSkMC = human skeletal muscle cells; assay: cytotoxicity call (relative viability < 0.9); details: 10 µM
HepG2 = assay: cytotoxicity call (relative viability < 0.9); details: 10 µM
S. aureus RN4220 = assay: growth inhibition call (relative growth <= 0.2); details: 50 µM

C[C@H](CO)N1C[C@H](C)[C@@H](CN(C)S(=O)(=O)c2ccc(Cl)cc2)Oc2ccc(NS(=O)(=O)c3cn(C)cn3)cc2CC1=O
inactive: cytotoxicity call (HSkMC) | cytotoxicity call (HepG2) | growth inhibition call (S. aureus RN4220)

NCc1nc(-c2ccccc2)no1
inactive: cytotoxicity call (HSkMC) | cytotoxicity call (HepG2) | growth inhibition call (S. aureus RN4220)

C[C@H]1CN([C@@H](C)CO)C(=O)c2cc(-c3ccc(C#N)cc3)cnc2O[C@H]1CN(C)C(=O)Nc1ccc(C(F)(F)F)cc1
inactive: cytotoxicity call (HSkMC) | cytotoxicity call (HepG2) | growth inhibition call (S. aureus RN4220)

C[C@@H]1CCCCO[C@@H](CN(C)C(=O)Nc2ccc(C(F)(F)F)cc2)[C@H](C)CN([C@H](C)CO)C(=O)c2cc(NC(=O)c3ccccc3)ccc2O1
inactive: cytotoxicity call (HSkMC) | cytotoxicity call (HepG2) | growth inhibition call (S. aureus RN4220)

Cc1noc(C)c1NC(=O)Nc1cccc2c1O[C@H](CN(C)S(=O)(=O)c1cn(C)cn1)[C@@H](C)CN([C@H](C)CO)C2=O
inactive: cytotoxicity call (HSkMC) | cytotoxicity call (HepG2) | growth inhibition call (S. aureus RN4220)

O=P([O-])(O)C(O)(Cc1cccnc1)P(=O)(O)O.[Na+]
inactive: cytotoxicity call (HSkMC) | cytotoxicity call (HepG2) | growth inhibition call (S. aureus RN4220)

NC(=O)c1ccc2nc(-c3ccc(C4(N)CCC4)cc3)c(-c3ccccc3)n2n1
inactive: cytotoxicity call (HSkMC) | cytotoxicity call (HepG2) | growth inhibition call (S. aureus RN4220)

COc1ccc([C@@H]2CC=CC[C@@H](C)Oc3ccccc3C(=O)N(C)[C@H](Cc3ccccc3)C(=O)N2)c(OC)c1
inactive: cytotoxicity call (HSkMC) | cytotoxicity call (HepG2) | growth inhibition call (S. aureus RN4220)

Cc1ccc(S(=O)(=O)Nc2ccc3c(c2)C(=O)N([C@@H](C)CO)C[C@H](C)[C@@H](CN(C)S(=O)(=O)c2cn(C)cn2)O3)cc1
inactive: cytotoxicity call (HSkMC) | cytotoxicity call (HepG2) | growth inhibition call (S. aureus RN4220)

C[C@H](CO)N1C[C@H](C)[C@@H](CN(C)S(C)(=O)=O)Oc2cc(C#Cc3ccccc3)ccc2S1(=O)=O
inactive: cytotoxicity call (HSkMC) | cytotoxicity call (HepG2) | growth inhibition call (S. aureus RN4220)

C[C@@H]1CCCCO[C@H](CN(C)C(=O)Nc2cccc3ccccc23)[C@@H](C)CN([C@@H](C)CO)C(=O)c2cc(NC(=O)Nc3ccc(C(F)(F)F)cc3)ccc2O1
inactive: cytotoxicity call (HSkMC) | cytotoxicity call (HepG2) | growth inhibition call (S. aureus RN4220)

C[C@@H]1CN([C@H](C)CO)C(=O)c2cc(NS(=O)(=O)c3cccs3)ccc2O[C@@H](C)CCCCO[C@H]1CN(C)C(=O)Nc1ccc(F)cc1
inactive: cytotoxicity call (HSkMC) | cytotoxicity call (HepG2) | growth inhibition call (S. aureus RN4220)

COc1ccc(NC(=O)Nc2cccc3c2O[C@H](CN(C)S(=O)(=O)c2c(C)noc2C)[C@@H](C)CN([C@H](C)CO)C3=O)cc1
inactive: cytotoxicity call (HSkMC) | cytotoxicity call (HepG2) | growth inhibition call (S. aureus RN4220)

C[C@H](CO)N1C[C@H](C)[C@H](CN(C)CC2CCCCC2)Oc2ccc(NC(=O)Nc3ccccc3)cc2C1=O
inactive: cytotoxicity call (HSkMC) | cytotoxicity call (HepG2) | growth inhibition call (S. aureus RN4220)

C[C@@H]1CCCCO[C@@H](CN(C)Cc2ccc(C(=O)O)cc2)[C@H](C)CN([C@@H](C)CO)C(=O)c2cc(NC(=O)Nc3ccc4c(c3)OCO4)ccc2O1
inactive: cytotoxicity call (HSkMC) | cytotoxicity call (HepG2) | growth inhibition call (S. aureus RN4220)

O=C(C[C@H]1CC[C@H](NC(=O)Cc2ccccn2)[C@@H](CO)O1)NCCCN1CCOCC1
inactive: cytotoxicity call (HSkMC) | cytotoxicity call (HepG2) | growth inhibition call (S. aureus RN4220)

COc1ccc(NC(=O)N(C)C[C@H]2OCc3cn(nn3)CCCC(=O)N([C@@H](C)CO)C[C@H]2C)c(OC)c1
inactive: cytotoxicity call (HSkMC) | cytotoxicity call (HepG2) | growth inhibition call (S. aureus RN4220)

O=C(O)C=Cc1ccc(O)c(O)c1
inactive: cytotoxicity call (HSkMC) | cytotoxicity call (HepG2) | growth inhibition call (S. aureus RN4220)

COc1ccc(CN(C)C[C@@H]2Oc3c(NS(C)(=O)=O)cccc3C(=O)N([C@H](C)CO)C[C@@H]2C)cc1
inactive: cytotoxicity call (HSkMC) | cytotoxicity call (HepG2) | growth inhibition call (S. aureus RN4220)

CC(C)NC(=O)Nc1ccc2c(c1)C(=O)N(C)[C@H]1CC[C@H](CC(=O)NCc3ccc(F)cc3)O[C@@H]1CO2
inactive: cytotoxicity call (HSkMC) | cytotoxicity call (HepG2) | growth inhibition call (S. aureus RN4220)

COCC(=O)N1CC(=O)N2[C@H](CO)[C@H](c3ccc(C#Cc4cccnc4)cc3)[C@@H]2C1
inactive: cytotoxicity call (HSkMC) | cytotoxicity call (HepG2) | growth inhibition call (S. aureus RN4220)

O=C(C[C@H]1CC[C@H]2[C@@H](COC[C@@H](O)CN2C(=O)Nc2ccc3c(c2)OCO3)O1)N1CCN(c2ccccc2)CC1
inactive: cytotoxicity call (HSkMC) | cytotoxicity call (HepG2) | growth inhibition call (S. aureus RN4220)

COc1ccc(S(=O)(=O)Nc2ccc3c(c2)C(=O)N([C@H](C)CO)C[C@@H](C)[C@@H](CN(C)S(=O)(=O)c2cccs2)O3)cc1
inactive: cytotoxicity call (HSkMC) | cytotoxicity call (HepG2) | growth inhibition call (S. aureus RN4220)

O=C(C[C@@H]1C=C[C@H](NC(=O)CN2CCOCC2)[C@@H](CO)O1)NC1CCCCC1
inactive: cytotoxicity call (HSkMC) | cytotoxicity call (HepG2) | growth inhibition call (S. aureus RN4220)

C[C@H](CO)N1C[C@H](C)[C@H](CN(C)S(=O)(=O)c2cccc(F)c2)Oc2ncc(C#CC3(O)CCCC3)cc2C1=O
inactive: cytotoxicity call (HSkMC) | cytotoxicity call (HepG2) | growth inhibition call (S. aureus RN4220)

C[C@@H]1CN([C@@H](C)CO)C(=O)c2cccc(NC(=O)Nc3ccc4c(c3)OCO4)c2O[C@@H]1CN(C)Cc1ccc(C(F)(F)F)cc1
inactive: cytotoxicity call (HSkMC) | cytotoxicity call (HepG2) | growth inhibition call (S. aureus RN4220)

C[C@H](CO)N1C[C@H](C)[C@H](CN(C)Cc2ccc3c(c2)OCO3)Oc2ccc(NC(=O)Cn3cnnn3)cc2C1=O
inactive: cytotoxicity call (HSkMC) | cytotoxicity call (HepG2) | growth inhibition call (S. aureus RN4220)

CO[C@@H]1CN(C)C(=O)c2ccc(NS(=O)(=O)CC(F)(F)F)cc2OC[C@H](C)N(Cc2nccs2)C[C@H]1C
inactive: cytotoxicity call (HSkMC) | cytotoxicity call (HepG2) | growth inhibition call (S. aureus RN4220)

CCOC(=O)Nc1c[n+](N2CCOCC2)no1
inactive: cytotoxicity call (HSkMC) | cytotoxicity call (HepG2) | growth inhibition call (S. aureus RN4220)
